The text below walks through data of ChEMBL document CHEMBL1201862, “PubChem BioAssay data set” (2004).

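Tested at 5 concentrations; 48 h exposure; 96-well plates; endpoints linearly interpolated, else capped at highest concentration. The concentration for 50% growth inhibition is given as GI50.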 Active and inactive are the calls of the source. Cut-off read from the data, not from the text of the source: active = GI50 up to about 1.1 µM and inactive = higher.

The test system of this assay is NCI-H322M. The assay can be described thus: NCI-60 cell line screen, 48 h.
Take `O=C(O)CSc1ccc2nc3ccccc3c(O)c2c1`: the GI50 is inactive: > 100 µM.

Regarding `S=C(Nc1ccc2c(c1)Cc1ccccc1-2)Nc1ccc2c(c1)Cc1ccccc1-2`, the GI50 is inactive: > 100 µM.

Take `c1ccc2c(CSCc3cccc4ccccc34)cccc2c1`: the GI50 is inactive: > 100 µM.

As for `O=C(O)CCC1COc2ccccc2O1` (stereo not given), the GI50 is inactive: > 10 µM.

As for `OC(Cc1cccnc1)(c1ccccc1)c1ccccc1`, the GI50 was inactive: > 100 µM.

Take `Cn1c(=O)c2nc(CCCCc3nc4ccccc4[nH]3)[nH]c2n(C)c1=O`: the GI50 is inactive: > 100 µM.

As for `Oc1cc(-c2cccs2)nc2cc3c(cc12)OCO3`, the GI50 is inactive: 4.71 µM.

For `CC1=C(/C=C/C(=O)O)C(C)(C)CCC1`, the GI50 is inactive: > 100 µM.

`COc1ccc(C2c3cc4c(cc3OC(NNC(N)=O)C2C)OCO4)cc1` (stereo not given): the GI50 is inactive: 7.6 µM.

In the case of `CC(=O)NC(Cc1c[nH]c2ccccc12)C(=O)O` (stereo not given), the GI50 was inactive: > 100 µM.

As to `CCOC(=O)C1(Cc2ccccc2)C=CN(C(=O)c2ccccc2)C=C1`, the GI50 is inactive: > 100 µM.

As to `COc1ccccc1NC(=O)CC(=O)N1N=C(C)C(/N=N/c2ccc(C(=O)O)cc2)C1=O` (stereo not given), the GI50 is inactive: > 100 µM.

As to `O=C(O)/C=N/NC(=S)NC1CCCCC1`, the GI50 is inactive: > 100 µM.

On to `CNC(=S)N/N=C(\C(=N/NC(=S)NC)c1ccccn1)c1ccccn1`, for which the GI50 was inactive: 2.61 µM.

With `COc1ccc(C(N)=O)cc1/N=N/N(C)C`, the GI50 is inactive: > 100 µM.

Take `Cc1nc2ccc(S(=O)(=O)NS(=O)(=O)c3ccc(-c4ccccc4)cc3)cc2c(=O)n1NS(=O)(=O)c1ccc(-c2ccccc2)cc1`: the GI50 is inactive: > 100 µM.

In the case of `CCCCCCOP(=O)(OCCCCCC)OC(C(=O)OC)C(F)(F)F` (stereo not given), the GI50 is inactive: > 100 µM.

`Cc1ccc(NC(=O)CC(=O)n2nc(-c3ccccc3)c(/N=N\c3ccccc3[N+](=O)[O-])c2-c2ccccc2)cc1`: the GI50 is inactive: > 100 µM.

Take `Cc1ccc(C(CC(=O)C(C)(C)CN2CCCCC2)SCCS(=O)(=O)O)cc1` (stereo not given): the GI50 was inactive: 21.7 µM.

In the case of `O=C(O)c1ccc(Nc2cnc3ccc(C(F)(F)F)cc3n2)cc1`, the GI50 was inactive: 17.3 µM.

For the compound `C=C(C)C(=O)N1c2ccc(OC)cc2CC1C(=O)OCC` (stereo not given), the GI50 is inactive: > 100 µM.

In the case of `Cn1c(=O)c2c(nc3n2CCCC(=O)N3CCCCl)n(C)c1=O`, the GI50 is inactive: > 100 µM.

`COc1ccc(/C=C2\CCC(C)c3c2nc(N)c(C#N)c3-c2ccc(OC)c(OC)c2)cc1OC` (stereo not given): the GI50 was inactive: 31 µM.

As to `Cc1ccc(S(=O)(=O)N(c2ccccc2F)C2CCCCC2O)cc1` (stereo not given), the GI50 is inactive: 66.5 µM.

Regarding `COC(=O)C1=C(c2ccc3c(c2)OCO3)O[C@H](c2ccc3c(c2)OCO3)[C@H]1COC(C)=O`, the GI50 is inactive: > 100 µM.

As for `Nc1nc(Cl)cc(NC23CC4CC(CC(C4)C2)C3)n1`, the GI50 was inactive: 83.9 µM.

Turning to `CCOC(=O)CCC(NC(=O)c1ccc(Nc2nc3ccc(C(F)(F)F)cc3nc2-c2ccccc2)cc1)C(=O)OCC` (stereo not given), the GI50 was inactive: > 100 µM.

For the compound `CN(C)CCNC(=O)Cc1ccccc1Nc1c(Cl)cccc1Cl`, the GI50 was inactive: 13.2 µM.

Turning to `CCC(=O)C(C(=O)CC)c1c(OC(=O)c2ccccc2)ccc(O)c1C(=O)OC`, the GI50 was inactive: > 100 µM.

For `Cc1ccc(C2CC(=O)CC(c3ccc(C)cc3)C23C(=O)NC(=O)NC3=O)cc1` (stereo not given), the GI50 was inactive: > 100 µM.

On to `CSc1nn(C)cc2ncnc1-2`, for which the GI50 was inactive: > 100 µM.

In the case of `Cc1nc(Nc2ccccc2)sc1C(=O)CC(=O)C(=O)Nc1c(C(C)C)cccc1C(C)C`, the GI50 was inactive: > 100 µM.

Consider `CC(=O)OCc1nnn2c1C(OC(C)=O)CC2` (stereo not given), for which the GI50 was inactive: > 100 µM.

Turning to `Cc1cc2nc3n(c2cc1C)C(c1c(F)cccc1F)SC3` (stereo not given), the GI50 is inactive: 26.1 µM.

Turning to `COc1ccc(C(=O)O/N=C2/CCC/C2=C\c2ccccc2)cc1`, the GI50 was inactive: > 100 µM.

For `O=C(c1ccccc1)c1ccc2c(c1)nc1n2C(c2c(F)cccc2F)SC1` (stereo not given), the GI50 was inactive: 37.8 µM.

For the compound `CN(C)N1C(=O)S/C(=C\c2ccc([N+](=O)[O-])cc2)C1=O`, the GI50 was inactive: 76.4 µM.

In the case of `COc1cc2c(c(O)c1O)-c1ccc(OC)c(=O)cc1C(NC(C)=O)CC2` (stereo not given), the GI50 was inactive: 43 µM.

Regarding `CCc1cc2c(c3c1CCCC3)CC1(Cc3ccc(C(=O)OC)cc3C1)C2` (stereo not given), the GI50 was inactive: > 100 µM.

As for `O=C(Nc1ccc(Cl)c(Cl)c1)C(=O)C(C(=O)c1ccccc1F)C1OC(=O)c2ccccc21` (stereo not given), the GI50 was inactive: 24.6 µM.

With `CC1CNC(c2ccc3c(c2)Cc2cc(C4=NC(C)CN4)ccc2-3)=N1` (stereo not given), the GI50 is inactive: 23.4 µM.

On to `CC(=O)OCC12CCC3C4(C)CCCC(C)(C)C4CCC3(C)C1CC(C1=CC(=O)OC1O)O2` (stereo not given), for which the GI50 is inactive: 1.87 µM.

Regarding `Nc1ccn([C@H]2CO[C@@H](CO)[C@@H]2O)c(=O)n1`, the GI50 is inactive: > 100 µM.

For the compound `NC(=O)C(=O)N/N=C1/c2ccccc2CC1C1(O)C(=O)Nc2c(Cl)cc(Cl)cc21` (stereo not given), the GI50 is inactive: > 100 µM.

`COc1cc2c(c3c1c(=O)c1ccccc1n3C)C=CC1(CCCCC1)O2`: the GI50 was inactive: 2.15 µM.

For the compound `O=C(NNC(=S)Nc1ccccc1)c1cc(-c2ccccc2)nc2ccccc12`, the GI50 was inactive: 23.9 µM.

For `O=C(O)c1ccccc1Sc1ccc(C=C2NC(=S)N(c3ccccc3)C2=O)s1`, the GI50 is inactive: > 100 µM.

For the compound `O=S1(=O)c2ccccc2Oc2ccc(C(/C=N/O)=N/O)cc21`, the GI50 was inactive: 11 µM.

Consider `CSc1s[s+]c(SC)c1[O-]`, for which the GI50 was inactive: > 100 µM.

`NC(=O)C(=O)C1C(=O)N(c2ccccc2)N=C1N` (stereo not given): the GI50 is inactive: > 100 µM.

Take `CC(C)(C)OC(=O)N1Cc2cc(O)ccc2C[C@H]1C(=O)O`: the GI50 was inactive: > 100 µM.

As for `N#Cc1ccc(/N=C(/NCC(=O)O)Nc2cccc3ccccc23)cc1`, the GI50 is inactive: > 10 µM.

In the case of `Cc1c(C#N)c2nc3ccccc3n2c(=O)/c1=C/Nc1ccc(Cl)cc1`, the GI50 is inactive: 34.3 µM.

Regarding `COc1cc(CCNC2=CC(=O)c3nc[nH]c3C2=O)ccc1O`, the GI50 was inactive: 25.6 µM.

Take `COCCOCCOC1=C(Cl)C(=O)c2c(O)ccc(O)c2C1=O`: the GI50 was inactive: 13.2 µM.

In the case of `CN(C)CCNC(=O)c1cccc2cc3ccc4ccccc4c3nc12`, the GI50 is active: 0.125 µM.

For the compound `CC(=O)OCC1OC(n2cc(I)c(=O)[nH]c2=O)C(OC(C)=O)C(OC(C)=O)C1OC(C)=O` (stereo not given), the GI50 was inactive: > 100 µM.

Take `NCCCN(CCCCN(CCCN)Cc1ccc2ccccc2c1)Cc1ccc2ccccc2c1`: the GI50 is inactive: 1.82 µM.

As to `CC(C)(C)C(=O)Cc1cc2c(cc1C(=O)O)S(=O)(=O)NC(C(C)(C)C)=C2`, the GI50 was inactive: > 100 µM.

As for `Cc1cc2c(cc1C)[n+]([O-])c(C(=O)C/C(=N/NC(=O)CC#N)C(=O)Nc1ccccc1C(F)(F)F)c(C)[n+]2[O-]`, the GI50 is inactive: 62.1 µM.

For `CC(=O)NCC1OC2COC(c3ccccc3)OC2C2N=C(c3ccccc3)OC12` (stereo not given), the GI50 is inactive: 99.8 µM.

As to `O=C(N/C(=C\c1ccccc1Cl)c1nc2ccccc2[nH]1)c1ccccc1`, the GI50 was inactive: 37.8 µM.

As for `CCC1OC(=O)C(C)C(OC2CC(C)(O)C(O)C(C)O2)C(C)C(O)C(C)(O)CC(C)C(=O)C(C)C(O)C1C` (stereo not given), the GI50 is inactive: > 300 µM.

As for `N#CCc1ccc(/C(C#N)=C2/OC(=N)C(c3ccc(CC#N)cc3)C2=O)cc1` (stereo not given), the GI50 is inactive: > 100 µM.

Take `CC(=O)Oc1ccccc1/C=C/C(=O)/C=C/c1ccccc1OC(C)=O`: the GI50 is inactive: 2.3 µM.

Turning to `CC1=NC2=Nc3nc(C)cc[n+]3CN2C=C1`, the GI50 is inactive: > 100 µM.

As for `CCOC(=O)c1nnc2c(C(=O)OCC)c3ccccc3n2c1N`, the GI50 was inactive: 14.5 µM.

For `O=c1ccc2c(Cl)sc(Cl)c2[nH]1`, the GI50 was inactive: > 100 µM.

On to `CC#COS(=O)(=O)c1ccc(C)cc1`, for which the GI50 was inactive: > 100 µM.

For `FC(F)(F)c1ccccc1C1SCC2=Nc3ccccc3CN21` (stereo not given), the GI50 is inactive: 12.8 µM.

Regarding `COc1cc(N)c2[nH]c3c(C)ccc(C)c3c2c1`, the GI50 was inactive: > 100 µM.

As to `CC(=O)C(C(=N)C#N)C(=O)Nc1ccccc1` (stereo not given), the GI50 was inactive: > 100 µM.

Turning to `CC1=NN(c2ccc(S(=O)(=O)O)cc2)C2(C1)SCC(=O)N2c1nc2ccccc2s1` (stereo not given), the GI50 was inactive: > 100 µM.

As to `O=C1NC(=O)C(=O)C(c2nc3ccccc3s2)C1=O`, the GI50 is inactive: > 100 µM.

`C/C(=N/NC(=S)N1CCCCC1)c1ccccc1O`: the GI50 is inactive: > 31.6 µM.

On to `CC1(C)OC(=O)C(C)(C)C(=O)O1`, for which the GI50 is inactive: > 100 µM.

As to `O=c1[nH]c(=O)n(C2COC(CO)C2O)cc1F` (stereo not given), the GI50 was inactive: 35.6 µM.

Take `O=C[C@@H](CO)O[C@H](C=O)n1cnc2c(=O)nc[nH]c21`: the GI50 was inactive: 403 µM.

For `C=C(C)[C@@]1(O)CCCC[C@@H]1CC(Sc1ccccc1)Sc1ccccc1`, the GI50 was inactive: 16.6 µM.

`Cc1ccc(OCC2=NN3C(=O)/C(=C\c4ccc([N+](=O)[O-])o4)SC3N2)cc1` (stereo not given): the GI50 was inactive: 16.2 µM.

Consider `c1ccc(C2OCCO2)c(OCCOc2cc(OCCOc3ccccc3C3OCCO3)c(OCCOc3ccccc3C3OCCO3)cc2OCCOc2ccccc2C2OCCO2)c1`, for which the GI50 was inactive: > 100 µM.

On to `Cc1c(S(=O)(=O)O)ccc(/N=N/c2c(O)c(C(=O)O)cc3ccccc23)c1Cl`, for which the GI50 is inactive: > 100 µM.

Consider `N#C[BH2-][n+]1cn(C2CC(OP(=O)(O)OCC3OC(n4cnc5c(=O)[nH]c(N)nc54)CC3O)C(CO)O2)c2nc(N)[nH]c(=O)c21` (stereo not given), for which the GI50 is inactive: > 100 µM.

`C/C(=N\Nc1nc2ccccc2o1)c1cc(C)ncn1`: the GI50 was active: 0.0865 µM.

Consider `CN(C)CCn1c(=O)c2ccc(NCCNCCO)c3c(=O)c4ccccc4n(c1=O)c23`, for which the GI50 was active: 0.209 µM.
